From publication PMC4336329 (PLoS ONE, 2015)
About 2,200 (0.71%) of roughly 310,000 compounds showed an effect of 50% or more. The effect is printed as a negative number. The list shows a part of the results.

Biological target: human ether-à-go-go-related gene (hERG) potassium channel (human, UniProt Q12809)
Test: primary screen, population patch clamp on CHO cells stably expressing hERG

human ether-à-go-go-related gene (hERG) potassium channel, sequence (Q12809 whole entry, looked up): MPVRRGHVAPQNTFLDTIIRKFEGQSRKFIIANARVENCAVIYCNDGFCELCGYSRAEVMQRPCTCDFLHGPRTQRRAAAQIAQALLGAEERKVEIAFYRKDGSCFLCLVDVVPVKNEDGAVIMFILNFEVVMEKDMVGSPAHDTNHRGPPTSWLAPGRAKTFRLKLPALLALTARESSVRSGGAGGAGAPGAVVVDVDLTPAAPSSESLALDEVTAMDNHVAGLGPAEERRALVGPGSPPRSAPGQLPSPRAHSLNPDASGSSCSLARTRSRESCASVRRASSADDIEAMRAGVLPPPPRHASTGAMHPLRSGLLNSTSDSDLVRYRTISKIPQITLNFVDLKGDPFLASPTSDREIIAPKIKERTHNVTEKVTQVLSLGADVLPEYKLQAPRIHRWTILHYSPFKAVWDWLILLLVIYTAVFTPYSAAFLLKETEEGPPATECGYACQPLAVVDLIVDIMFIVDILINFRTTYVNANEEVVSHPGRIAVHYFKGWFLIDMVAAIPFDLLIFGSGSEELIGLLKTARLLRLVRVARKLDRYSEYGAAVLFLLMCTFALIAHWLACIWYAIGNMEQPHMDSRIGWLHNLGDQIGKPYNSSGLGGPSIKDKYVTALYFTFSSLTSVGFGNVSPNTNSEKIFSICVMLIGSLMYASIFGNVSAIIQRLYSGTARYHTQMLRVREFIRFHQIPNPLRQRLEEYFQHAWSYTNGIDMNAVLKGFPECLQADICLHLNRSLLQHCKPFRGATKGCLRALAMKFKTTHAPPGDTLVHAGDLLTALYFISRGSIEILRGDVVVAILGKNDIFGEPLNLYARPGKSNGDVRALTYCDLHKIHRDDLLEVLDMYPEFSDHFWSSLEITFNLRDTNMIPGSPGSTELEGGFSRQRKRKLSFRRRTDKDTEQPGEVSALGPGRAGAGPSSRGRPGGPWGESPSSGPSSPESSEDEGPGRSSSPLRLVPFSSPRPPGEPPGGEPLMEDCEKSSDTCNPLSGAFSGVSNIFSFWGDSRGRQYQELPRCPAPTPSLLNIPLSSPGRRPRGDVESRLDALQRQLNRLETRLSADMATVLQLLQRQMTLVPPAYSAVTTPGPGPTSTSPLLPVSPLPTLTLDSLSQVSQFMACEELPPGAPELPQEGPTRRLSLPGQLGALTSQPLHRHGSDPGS

Point of comparison: `Cc1cc(OC(=O)CNC(=O)OC(C)(C)C)c2c(C)cc(=O)oc2c1`, “hERG current change (%, negative = inhibition) at 1uM” value 4.88%. Against it:
- CCOc1ncccc1C(=O)Nc1cccc(C(=O)Nc2cccc(S(=O)(=O)CCO)c2)c1 — higher, 5.46%
- CC(=O)c1c(C)[nH]c(C(=O)N(C)C(c2ccccc2)c2ccccc2)c1C — higher, 10.4%
- Cc1n[nH]c(C)c1CS(=O)(=O)c1ccccc1 — higher, 14%
- CC1CC(C)CN(C(=O)COC(=O)c2ccc[nH]c2=O)C1 (stereo not shown) — higher, 7.04%
- CC(C)c1ccc(Nc2nc(Cl)nc(NCc3ccco3)n2)cc1 — higher, 11.8%
- CC(=O)c1cccc(-n2c(CCC(=O)O)ccc2-c2cccs2)c1 — higher, 7%
- Cc1ccc(C(=O)/C=C/c2ccc3c(c2)OCO3)o1 — higher, 5.84%
- Cc1cccc(/C=C/c2onc(C)c2S(=O)(=O)N2CCC(C(=O)N3CCCCCC3)CC2)c1 — higher, 13.4%
- COc1cccc(-c2nc(CS(=O)(=O)CC(=O)N3CCc4ccccc4C3)c(C)o2)c1 — higher, 5.88%
- O=[N+]([O-])c1cccnc1N1CCC(c2cc(-c3ccc(Cl)cc3)n[nH]2)CC1 — lower, 2.13%
- CCC(=O)Nc1nc(-c2ccccc2)ns1 — lower, -3.29%
- Cc1nc2c(c(=O)n1CCC1=CCCCC1)c1nc3ccccc3nc1n2/N=C/c1ccccc1 — higher, 8.45%
- Cc1cccc(NC(=O)C(=O)NCCCc2ccccc2)c1 — higher, 9.27%
- O=S(=O)(c1ccc(Br)cc1)N1CCC(c2nc3ccccc3[nH]2)CC1 — lower, -6.12%
- O=C(Nc1nnc(C2=COCCO2)o1)c1cccc([N+](=O)[O-])c1 — higher, 10.9%
- COc1ccc(C(=O)c2sc(Nc3ccccc3)nc2N)cc1OC — higher, 15.7%
- COC(=O)c1ccccc1NC(=O)C(C)NS(=O)(=O)c1ccc(OC)cc1 (stereo not shown) — higher, 6.2%
- Cc1ccc2nc(-c3ccc(SCC(=O)Nc4cc(C)on4)nc3)[nH]c2c1 — higher, 11%
- COc1ccc(CN(CC(=O)NCC2CCCO2)C(=O)CCC(=O)Nc2nccs2)cc1 (stereo not shown) — higher, 17.5%
- O=C1NC(=S)NC(=O)C1=Cc1ccc(OCC(=O)N2CCCC2)cc1 — higher, 6.23%
- CCOC(=O)C1CCN(Cc2c(O)ccc3ccccc23)CC1 — higher, 6.87%
- CC(C)C(=O)OCC(=O)Nc1ccc2c(c1)CCC2 — higher, 15%
- c1ccc2sc(N3CCCN(Cc4nc(-c5cnccn5)no4)CC3)nc2c1 — lower, -1.27%
- O=C1C(c2ccccc2)=C(N2CC2)c2ccccc21 — higher, 9.11%
- O=C(NC(=S)Nc1ccc2ncccc2c1)c1ccccc1 — higher, 9.42%
- O=C(O)c1ccc(Nc2ncnc3c2cnn3Cc2ccccc2)cc1 — higher, 13%
- NS(=O)(=O)c1ccc(N/N=C/c2ccccn2)c([N+](=O)[O-])c1 — higher, 15.4%
- CC1CCN(S(=O)(=O)c2csc(C(=O)Nc3ccccc3)c2)CC1 — lower, -0.636%
- C=CCNC(=S)N1CCN(CCNC2=CC(=O)CC(C)(C)C2)CC1 — higher, 22.9%
- O=C(c1ccc2c(=O)n(Cc3ccccc3)c(=S)[nH]c2c1)N1CCOCC1 — higher, 13.5%
- Cc1cccc(C)c1NC(=O)COC(=O)C1Cc2ccccc2CN1C(=O)c1ccccc1 (stereo not shown) — higher, 8.9%
- COc1ccc(/C(C)=N/OC/C(O)=C(\C#N)c2nc3ccccc3[nH]2)c(OC)c1 — lower, -5.85%
- CCCN(Cc1nnc(-c2ccccc2Cl)o1)C(=O)c1cc(S(=O)(=O)N2CCOCC2)ccc1F — lower, -8.05%
- O=C(c1cc2ccccc2oc1=O)N1CCN(CCc2ccccc2)CC1 — lower, -60.4%
- CCN(CC(=O)Nc1cc(C)c(Cl)cc1OC)CC(=O)NC1CCS(=O)(=O)C1 (stereo not shown) — higher, 15.9%
- Cc1cc(C)n(-c2nc3ccccc3n3nnnc23)n1 — higher, 11.1%
- CSc1nc(C)cc(OCC#N)n1 — higher, 10.1%
- COc1ccc(N2CCN(C(=O)c3sc4ncn(CC(=O)N5CCCCC5)c(=O)c4c3C)CC2)cc1 — higher, 8.97%
- COC(=O)C1CN(S(=O)(=O)c2cc(OC)ccc2OC)CCS1 (stereo not shown) — higher, 13.4%
- CCOC(=O)CCc1c(C)nc2c(c(C)nn2-c2ccc(C)cc2)c1C — higher, 17.4%
- C=CCn1c(SCC(=O)c2c(C)[nH]c3ccccc23)nnc1-c1ccncc1 — higher, 20.1%
- O=C1c2ccccc2C(=O)N1CCCCN(C(=O)c1ccc([N+](=O)[O-])cc1)c1ccc(Cl)cc1 — higher, 9.1%
- CCOC(=O)COc1ccccc1/C=C\[N+](=O)[O-] — higher, 9.17%
- COC(=O)c1ccc(NC(=O)Cc2ccc(F)cc2)cc1 — higher, 20.2%
- CCCn1cc(S(=O)(=O)c2ccccc2)c(=O)c2cc(F)c(N3CCN(C)CC3)cc21 — higher, 15.5%
- O=c1[nH]c2sc3c(c2c2nncn12)CCCC3 — higher, 11.7%
- Cc1cc(C)nc(Sc2c(C)nn(-c3ccccc3)c2C)n1 — lower, 3.43%
- O=C(CSc1nnc(SCc2ccc(F)cc2)s1)Nc1ccc(C(=O)O)cc1 — higher, 9.2%
- Oc1ccc(C[C@@H]2CNC(=S)N2CCCCC2CCCCC2)cc1 — higher, 15%
- c1ccc(-c2nc(-c3nccc4ccccc34)oc2-c2ccccc2)cc1 — higher, 5.84%
- CC(C(=O)Nc1ccccc1F)N1C(=O)c2ccccc2C1=O (stereo not shown) — higher, 14%
- CCCC(=O)Nc1sc(C(=O)Nc2cccc(N)c2)c(C)c1C(=O)OC — higher, 6.22%
- O=C(CSc1nc2ccccc2[nH]1)NCC1CCCO1 (stereo not shown) — higher, 10.5%
- O=C(Nc1ccc(F)c(Cl)c1)Nc1csc2ccccc12 — higher, 15.6%
- O=C(Nc1ccc(Cl)cc1)NC1CCS(=O)(=O)C1 (stereo not shown) — lower, -13.4%
- COc1cc2ccccc2cc1C(=O)Nc1ccc(N2CCN(C(=O)C(C)C)CC2)cc1 — higher, 15.7%
- CCC1(CC)NC(=O)N(CC(=O)Nc2ccc(S(=O)(=O)N3CCOCC3)cc2)C1=O — lower, 3.3%
- CCN(CC)S(=O)(=O)c1cccc(NC(=O)CC2CCCC2)c1 — higher, 15.6%
- Cl.OCc1cnc[nH]1 — higher, 16.1%
- COc1cccc(-c2noc(C3CCCN(C(=O)c4cccc(F)c4)C3)n2)c1 (stereo not shown) — higher, 8.47%
- COc1ccc(NC(=S)N2CCC(N(C)CCN3CCOCC3)CC2)cc1Cl — higher, 10.8%
- CCN1C(=O)CC(Sc2ccccc2N)C1=O (stereo not shown) — higher, 14.3%
- CC(C)c1ccc(NS(=O)(=O)c2ccc3c(c2)oc(=O)n3C)cc1 — higher, 19.7%
- CC(C)CN(CC(C)C)S(=O)(=O)c1cc([N+](=O)[O-])ccc1N1CCCCCC1 — higher, 18.5%
- COc1ccc(OC)c(S(=O)(=O)NCC(=O)NC2CCCCCC2)c1 — higher, 16%
- Cc1nc2ccccc2nc1CN1CCC(CO)(CC2CCCCO2)CC1 (stereo not shown) — higher, 6.85%
- CCCNC(=O)c1c(N)n(Cc2ccc3c(c2)OCO3)c2nc3ccccc3nc12 — lower, 3.61%
- CCOc1cccc(OCCOc2ccccc2[N+](=O)[O-])c1 — higher, 6.73%
- COc1ccc(C(CCNCc2ccc(N(C)C)cc2)c2ccccc2OC)cc1 (stereo not shown) — lower, -18.4%
- O=C(NNC(=O)c1cc(-c2ccc(Cl)cc2Cl)nc2ccccc12)Nc1ccccc1 — lower, 2.96%
- CC(NC(=O)CCNC(=O)N1CCn2c1nc1ccccc12)c1ccccc1 (stereo not shown) — higher, 14.7%
- CC(NS(=O)(=O)c1ccc(Cl)cc1)C(=O)NCCC1=CCCCC1 (stereo not shown) — higher, 9.57%
- CC1Cc2ccccc2N1Cc1nc2scc(-c3cccs3)c2c(=O)[nH]1 (stereo not shown) — higher, 21.5%
- CS(=O)(=O)N1CCC(C(=O)Nc2ccc(Br)cc2F)CC1 — higher, 9.24%
- O=C(CSc1ncc(-c2ccccc2)nn1)NCc1ccco1 — lower, 0.329%
- CC(C)c1nnc(NC(=O)Cc2ccccc2[N+](=O)[O-])s1 — higher, 13.8%
- COc1ccc(NC(=O)N2CCCC2C(=O)NCc2ccc(F)cc2)cc1 (stereo not shown) — lower, 3.81%
- O=C(Cc1ccccc1)Nc1ccc(Cl)cn1 — higher, 13.3%
- CCOc1ccccc1C(c1c(C)n(C)n(-c2ccccc2)c1=O)c1c(C)n(C)n(-c2ccccc2)c1=O — higher, 11.3%
- CCOc1cc(/C=N/NC(=O)CN2CCCCC2)ccc1OCc1ccc(Cl)cc1 — higher, 17%
- CS(=O)(=O)N(CC(=O)NC1CCCC1)c1ccc(Oc2ccccc2)cc1 — higher, 7.32%
- O=C(Nc1ccc(-c2nnc(-c3ccccc3)o2)cc1)c1ccc(Br)o1 — lower, -8.53%
- CC1=CC(C)(C)N(S(=O)(=O)c2ccc(C)cc2)c2ccc(C)cc21 — lower, 0.168%
- CCO[C@@H]1OC(C(=O)N2CCN(Cc3ccc4c(c3)OCO4)CC2)=C[C@H](c2ccc3c(c2)OCO3)[C@H]1CCCO — lower, 2.02%
- CC1CCCN(S(=O)(=O)c2cc3c4c(c2)C(C)C(=O)N4CCC3)C1 (stereo not shown) — higher, 12%
- Cc1ccc(NS(=O)(=O)c2ccc(CCC(=O)NCCO)cc2)cc1 — lower, 1.63%
- O=c1cc(O)c2sc3nc(-c4cccnc4)cc(C(F)(F)F)c3c2[nH]1 — higher, 10.6%
